Data reported in PubChem BioAssay AID1159614 (National Center for Advancing Translational Sciences (NCATS), 2016).
Screen size: about 45,000 compounds; about 65 (0.1%) were called active. Calls follow the shape of the dose curve; as a rule, active = well fitted activation curve with a large enough effect; inconclusive = small, poorly fitted or top-dose-only effect; inactive = no such curve, though single readings can be large or run the other way. The list shows a part of the results.

Biological target: Galactocerebrosidase (Homo sapiens) (UniProt P54803)
Chain of UniProt P54803 (P54803 whole entry, looked up): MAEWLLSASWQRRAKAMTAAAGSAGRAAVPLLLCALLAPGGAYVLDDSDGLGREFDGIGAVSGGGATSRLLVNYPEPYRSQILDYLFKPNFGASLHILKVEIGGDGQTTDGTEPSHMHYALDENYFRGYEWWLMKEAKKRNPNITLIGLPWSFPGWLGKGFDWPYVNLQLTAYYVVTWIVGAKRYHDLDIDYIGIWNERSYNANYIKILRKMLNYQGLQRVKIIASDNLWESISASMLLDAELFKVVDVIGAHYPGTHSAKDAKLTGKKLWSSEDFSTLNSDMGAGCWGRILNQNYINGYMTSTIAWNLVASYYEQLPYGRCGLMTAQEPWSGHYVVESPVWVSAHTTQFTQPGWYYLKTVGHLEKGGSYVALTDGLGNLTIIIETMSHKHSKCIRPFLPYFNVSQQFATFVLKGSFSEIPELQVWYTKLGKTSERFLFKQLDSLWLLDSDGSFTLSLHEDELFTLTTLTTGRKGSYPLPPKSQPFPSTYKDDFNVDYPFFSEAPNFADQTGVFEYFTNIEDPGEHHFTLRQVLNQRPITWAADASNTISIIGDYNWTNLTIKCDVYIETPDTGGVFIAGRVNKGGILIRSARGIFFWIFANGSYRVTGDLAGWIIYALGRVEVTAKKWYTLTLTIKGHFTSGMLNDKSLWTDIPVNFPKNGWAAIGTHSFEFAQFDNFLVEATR
Assay: A Novel Cell-Based Assay to Identify Small Molecules for B -Galactocerebrosidase; also: 0% is about no effect; nearly all actives have a fitted effect of over 65% in size
Conditions: 145M-Twi-hGALC-G270D cells (Twitcher mouse brain line with human GALC G270D), HMU-beta-Gal fluorescence, 48 h; activation: at the top concentration
From the text: Lysosomal storage diseases (LSDs) are caused by genetic mutations in genes encoding proteins important for normal lysosomal function. Globoid cell leukodystrophy (GLD), mostly known as Krabbe disease, is a prototype of the neurological LSDs caused by deficiency of beta-galactocerebrosidase (GALC). In brain specimens of GLD patients, psychosine levels are substantially elevated. At elevated concentrations, psychosine becomes cytotoxic to neuronal cells, particularly to oligodendrocytes (OLG), neural cells responsible for myelin formation. Therefore, the biochemical disturbances in GLD are manifested by different degrees of brain demyelination resulting in a broad spectrum of neurological manifestations. Most of the FDA-approved therapies are based on enzyme replacement therapeutic (ERT) agents, which treat non-neurological symptoms of Gaucher disease, Fabry disease, few mucopolysaccharidoses and Pompe disease. Unfortunately, in GLD, a primarily neurological LSD, ERT agents, as large molecular weight molecules unable to cross the blood-brain barrier, which makes this an inefficacious therapeutic approach. In GLD, increasing the residual GALC activity just above the critical threshold (~10% of wild type enzymatic activity), the cytotoxic levels of psychosine will be reduced, avoiding the OLGs apoptosis and the subsequent demyelination process. This will translate in disease stabilization and amelioration of GLD patient symptoms.
A cell-based assay in 1,536-well plate format was developed to implement a quantitative high-throughput screening (qHTS) assay using GLD-disease relevant cells to identify small molecules that produce enhancements of the residual enzymatic activity levels of mutants GALC found and prevalent in GLD patients. Compounds that are active may therefore have some therapeutic application for GLD. After the treatment of live cells for a determined period, using a fluorescent GALC specific substrate, the mutant residual GALC activity is measured. This cell-based qTHS assay was used to screen part of the MLPCN library for small molecule able to increase the mutant GALC enzymatic activity. In this assay, increased fluorescent signal corresponds to enhanced levels of mutant GALC residual enzymatic activity. Activation is the desired outcome for this assay.
NIH Chemical Genomics Center [NCGC]
NIH Molecular Libraries Probe Centers Network [MLPCN]
Assay Submitter (PI): Gustavo Maegawa MD,PhD, University of Florida, Gainesville, FL
2)#Two cell lines were established for the assay: 145M-Twi-hGALC-G270D (brain-derived Twitcher cell line stably expressing human GALC-G270D) and 145M-Twi-hGALC-WT (same 145M-Twi stably expressing human GALC wild type). The Twitcher is the murine C57B/6 model for GLD with naturally occurring homozygous nonsense GALC mutation. The 145M-Twi cell line was established at Maegawa lab (Ribbens J et al 2014).
a.#Media: DMEM/F12 (1:1) with 10% fetal bovine-serum (FBS) with penicillin/streptomycin (PS-1X - 100 I.U./mL of penicillin+100 ug/mL of streptomycin).
b.#The 6-Hexadecanoylamino-4-methylumbelliferyl-b-D-galactoside (HMU-B-gal) substrate was prepared as per Wiederschain et al 1992. Using 20-mL borosilicate tubes, 2.20 mg of HMU-b-Gal was added in each tube to prepare substrate-film with a final air-nitrogen stream evaporation to remove all diluent solvents.
c.#The HMUb-Gal substrate buffer consists of 0.2 M Na2HPO4 (sodium phosphate dibasic)/ 0.1 M Citric Acid with the pH adjusted to 5.2 using HCl. Sodium Azide at 0.02% and Sodium Taurocholate (NaTC) at 1 mg/mL were added to this substrate buffer.
d.#The HMU-b-Gal stopping buffer consist of 0.5 M NaHCO3 (sodium bicarbonate) /0.5 M Na2CO3 (sodium carbonate). […] Triton X-100 at 0.25% was added.
4)#Preparation of HMU-b-Gal substrate tubes
Adding 18.6 mL of the HMUb-Gal substrate buffer to each 20-mL tube (2.20 mg of HMU-b-Gal) will reach a concentration of 0.2 mM. Vortex well the tube until the solution is fully homogenized (clear cloudy solution). […]

Row | SMILES | activation
1 | COc1ccc(C(c2ccc(OC)cc2)C(Cl)(Cl)Cl)cc1 | inactive: -15.6% [at 114 µM]
2 | CCOC(=O)NC(O)C(Cl)(Cl)Cl (stereo not given) | inactive: -14.9%
3 | Cc1cccc(-c2nc(CN3C(=O)CN=C(c4ccccc4)c4ccccc43)c(C)o2)c1 | inactive: -29.8%
4 | Cc1ccc(NC(=O)Cn2cc(C(=O)c3ccccc3)c3ccccc32)cc1 | inactive: -25.4%
5 | Cn1c(=O)n(C)c2cc(CNCCc3ccc(F)cc3)ccc21 | inactive: -29.1%
6 | CCOC(=O)C(c1c(O)c2ccccc2oc1=O)c1c(O)c2ccccc2oc1=O | inactive: -16.2%
7 | Cc1ccc(Cl)cc1NC(=O)N(Cc1ccc2c(c1)OCO2)C1CCN(Cc2ccccc2)CC1 | inactive: -5.91%
8 | CCOP(=S)(OCC)Oc1ccc2c(C)c(Cl)c(=O)oc2c1 | inactive: -14.2%
9 | COC[C@@H](NC(C)=O)C(=O)NCc1ccccc1 | inactive: -15.6%
10 | Cc1ccc2nc(NC(=O)c3cccn(Cc4ccc(Cl)cc4)c3=O)sc2c1 | inactive: -15.7%
11 | CN1C(=O)[C@@H](NC(=O)c2cc3ccccc3[nH]2)N=C(c2ccccc2)c2ccccc21 | inactive: -0.599%
12 | c1cc2c(c(N3CCNCC3)c1)OCCO2 | inactive: -14.5%
13 | COc1ccc(C(=O)c2c(C)n(CCN3CCOCC3)c3ccccc23)cc1 | inactive: -13.6%
14 | O=C(O)Cc1ccccc1 | inactive: 5.35%
15 | CCOC(=O)c1ncn2c1CN(C)C(=O)c1c(I)cccc1-2 | inactive: -11.2%
16 | Clc1cccc(SC2CCNCC2)n1 | inactive: -12.5%
17 | CCCCC1C(=O)NC(=O)N(C2CCCCC2)C1=O (stereo not given) | inactive: -10.3%
18 | Cc1ccc(-n2c(/C=C/c3ccc(Br)s3)nc3ccccc3c2=O)cc1 | inactive: -19.1%
19 | CC[n+]1c(-c2ccccc2)c2cc(N)ccc2c2ccc(N)cc21 | inactive: -14%
20 | COc1ccc(Cl)cc1NC(=O)CN1C(=O)CN=C(c2ccccc2)c2cc(Cl)ccc21 | inactive: 2.81%
21 | NP(N)(=O)NC(=O)c1ccc(F)cc1 | inactive: -15.7%
22 | O=c1c2ccccc2nc(/C=C/c2cccc3ccccc23)n1-c1ccccc1Cl | inactive: -7.69%
23 | Cc1cccc(-n2c(/C=C/c3ccccc3O)nc3ccccc3c2=O)c1 | inactive: -7.42%
24 | CCc1ccc(NC(=O)c2cccn(Cc3cccc([N+](=O)[O-])c3)c2=O)cc1 | inactive: -16.1%
25 | CCCCc1ccc(NC(=O)c2cccn(Cc3ccc(Cl)cc3)c2=O)cc1 | inactive: -20%
26 | Cc1c(C(c2ccc(Cl)cc2Cl)c2c(O)c3ccccc3oc2=O)c(=O)n(-c2ccccc2)n1C (stereo not given) | inactive: -13.1%
27 | O=c1c2ccccc2nc(/C=C\c2ccccc2F)n1-c1ccc(O)cc1 | inactive: -16.1%
28 | Cc1ccc(-n2c(/C=C/c3cc(Br)cs3)nc3ccccc3c2=O)cc1 | inactive: -4.55%

Row | SMILES | activation
29 | Cc1ccccc1CN1C(=O)CN=C(c2ccccc2)c2cc(Cl)ccc21 | inactive: 7.11%
30 | COc1ccc(C(=O)Nc2ccc(Cl)cc2C(=O)c2ccccc2)c(OC)c1 | inactive: -8.99%
31 | Cc1ccc(OCC(=O)N2CCN(CCc3ccncc3)CC2)cc1C | inactive: -2.78%
32 | COc1ccc(C(CN(C)C)C2(O)CCCCC2)cc1 (stereo not given) | inactive: -22%
33 | CC(C)(C)OC(=O)c1ncn2c1[C@@H]1CCCN1C(=O)c1c(Br)cccc1-2 | inactive: -12%
34 | Cc1cc(-n2c(/C=C/c3cccs3)nc3ccccc3c2=O)ccc1Br | inactive: -10.3%
35 | CCN(CC)CCOC(=O)C(O)(c1ccccc1)c1ccccc1 | inactive: -23.4%
36 | Cc1cc(-n2c(/C=C/c3ccc(Br)s3)nc3ccccc3c2=O)ccc1Br | inactive: -15.7%
37 | CCOP(=S)(OCC)Oc1cc(C)nc(C(C)C)n1 | inactive: -17.9%
38 | CNC(C)(C)Cc1ccccc1 | inactive: -19.8%
39 | OC(O)C(Cl)(Cl)Cl | inactive: -9.88%
40 | COc1ccc(/C=C/c2nc3ccccc3c(=O)n2-c2ccc(C)cc2)cc1O | inactive: -10.3%
41 | C[C@]12CCC(=O)C(O)=C1CC[C@@H]1[C@@H]2CC[C@]2(C)C(=O)CC[C@@H]12 | inactive: -12.5%
42 | CC[C@H]1C[C@@H]2C[C@H]3c4[nH]c5ccc(OC)cc5c4CCN(C2)[C@@H]13 | inactive: -9.75% [at 114 µM]
43 | O=C(Nc1ccon1)c1cccn(Cc2ccccc2)c1=O | inactive: -10.8%
44 | c1ccc(C2CC2)c(OCC2=NCCN2)c1 | inactive: -14.9%
45 | Nc1cccc2c(N)cccc12 | inactive: -13.8% [at 114 µM]
46 | O=C(C1CCCN(S(=O)(=O)c2cccc3nsnc23)C1)N1CCN(c2cccc(Cl)c2)CC1 (stereo not given) | inactive: -50.1%
47 | [Cl][In]([Cl])[Cl] | inactive: -12.6% [at 114 µM]
48 | Cc1cccc(-n2c(/C=C/c3cn(C)c4ccccc34)nc3ccccc3c2=O)c1 | inactive: -15.1%
49 | O=C(O)CCCOc1ccc(Cl)cc1Cl | inactive: -7.64% [at 114 µM]
50 | Cc1cc(NC(=O)c2cccn(Cc3cccc(Cl)c3)c2=O)no1 | inactive: -5.38%
51 | O=c1c(O)c(-c2ccc(O)c(O)c2)oc2cc(O)cc(O)c12 | inactive: -34.1%
52 | Cc1ccc(-c2nc(CN3C(=O)CN=C(c4ccccc4)c4cc(Cl)ccc43)c(C)o2)cc1 | inactive: 14.3%
53 | COCC(=O)N(c1c(C)cccc1C)C(C)C(=O)OC (stereo not given) | inactive: -13.6%
54 | O=S1(=O)N(Cc2ccccc2)CCCN1Cc1cccc(Cl)c1 | inactive: -2.3%
55 | Cc1ccc(Cn2cccc(C(=O)Nc3cc([N+](=O)[O-])ccc3C)c2=O)cc1 | inactive: -15.8%
